Variants at the floor of the assay are shown more often than the library holds them.
B1: tRNA (parent)
chain: CUCUCGGUAGCCAAGUUGGUUUAAGGCGCAAGACUUUAAUUUAUCACUACGAAAUCUUGAGAUCGGGCGUUCGACUCGCCCCCGGGAGAUUUUUUCCUCGAGCAA

Variants of: B1
Assay: nonsense suppression (GFP-seq) (ratio to wild type); higher = more function; SUP4oc tRNA, yeast GFP reporter sort-seq
Procedure, shortened: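 Yeast carrying genome-integrated SUP4oc tRNA variants from a library with ~3% random mutations were grown in raffinose/galactose medium with 80 mg/L adenine. Each strain also carried a galactose-driven GFP ochre reporter and RFP. Cells were sorted into GFP/RFP bins, and each bin was Illumina-sequenced (phred ≥30). Nonsense suppression (GFPSEQ) is the bin median GFP/RFP, weighted by each variant's estimated cell share per bin, relative to wild-type SUP4oc; variants needed ≥100 reads and ≥30 cells.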

Nonsense suppression, ≤ 0.026:
CUCUCGGCAGCCAAGUUGGUGUAAGGCGCAAGAGUUUAAUUUAUCACUACGAAAUCUUCAGAUUGGGCGUUCGACUCGCCCUCGGGAGAUUUUUUCCUCGAGCAA [U8C U21G C34G G59C C64U C82U]
CUCUCGGCAGCCAAGUUGGUUUAAGGCGCAAGACAUUAAUUUAUCACUACGAAAUCUUGAGAUCGGGCGUUCGACUCGCCCCCGGGAGAUUUUUUCCUCGAGCAA [U8C U35A]
CUCUCGGCAGCCAAGUUGGUUUAAGGCGCAAGACCUUAAUUUAUCACUACGAAAUCUUGAGAUCGGGCGUUCGACUCGCCCCCGGGAGAUUUUUUCCUCGAGCAA [U8C U35C]
CUCUCGGCAGCCAAGUUGGUUUAAGGCGCAAGACUUUAAUUUAUCACUACGAAACCUUGAUAUCGGGCGUUCGAUUCGCCCCCGGGAGAUUUUUUCCUCGAGCAA [U8C U55C G61U C75U]
CUCUCGGCAGCCAAGUUGGUUUAAGGCGCAAGACUUUAAUUUAUCACUACGAAAUCAUGAGAUCGGGCGUUCGACUCGCCCCCGGAAGAUUUUUUCCUCGAGCAA [U8C U57A G86A]
CUCUCGGCAGCCAAGUUGGUUUAAGGCGCAAGACUUUAAUUUAUCACUACGAAAUCGUGAGAUCGGGCGUUCGACUCGCCCACGGGAGAUUUUUUCCUCGAGCAA [U8C U57G C82A]
CUCUCGGCAGCCAAGUUGGUUUAAGGCGCAAGACUUUAAUUUAUCACUACGAAAUCUAAAGACCGGGCGUUCGACUCGCCCCCGGGAGAUUUUUUCCUCGAGCAA [U8C U58A G59A U63C]
CUCUCGGCAGCCAAGUUGGUUUAAGGCGCAAGACUUUAAUUUAUCACUACGAAAUCUUGAGAUCGGGCGAUCGACUCGCCCCCGGGAGAUUUUUUCCUCGAGCAA [U8C U70A]
CUCUCGGCAGCCAAGUUGGUUUAAGGCGCAAGACUUUAAUUUAUCACUACGAAAUCUUGAGAUCGGGCGUCCUACUCGCCCCCGGGAGAUUUUUUCCUCGAGCAA [U8C U71C G73U]
CUCUCGGCAGCCAAGUUGGUUUAAGGCGCAAGACUUUAAUUUAUCACUACGAAAUCUUGAGAUCGGGCGUGCGACUCGCCCCCGGGAGAUUUUUUCCUCGAGCAA [U8C U71G]
CUCUCGGCAGCCAAGUUGGUUUAAGGCGCAAGACUUUAAUUUAUCACUACGAAAUCUUGAGAUCGGGCGUUCGACACGCCCCCGGGAGAUUUUUUCCUCGAGCAA [U8C U76A]
CUCUCGGGCGCCAAGUUGGUUUAAGGCGCACGACUUUAAUUUAUCACUACGAAAUCUUGAGAUCGGACGUUCAUCUCGCCCCCGGGAGAUUUUUUCCUCGAGCAA [U8G A9C A31C G67A G73A A74U]
CUCUCGGGGGCCAAGUUGGUUUAAGGCGCAAGACUUUAAUUUAUCACUACGAAAUCUUGAGAUCGGGCGUUCGACUCGCCCCCGGGAGAUUUUUUCCUCGAGCAA [U8G A9G]
CUCUCGGGGUCCAAGUUGGUAUAAGGCGCAAGAGUUUAAUUUAUCACUACGAAAUCUUGAGAUCGGGCGUUCUACUCGCCCCCGGCAGAUUUUUUCCUCGAGCAA [U8G A9G G10U U21A C34G G73U G86C]
CUCUCGGGUGCCAAGUUGGUUUAAGGCGCAAGACUUUAAUUUAUCACUACGAAAUCUUGAAAUCGGGCGUUCGACUCGCCCCCGGGAGAUUUUUUCCUCGAGCAA [U8G A9U G61A]
CUCUCGGGAGCCGAGUUGGUUUAAGGCGCAAGACUUUAAUUUAUCACUACGAAAUCUUGACAUCGGGGGUUCGACUCGCCCGCGGGAGAUUUUUUCCUCGAGCAA [U8G A13G G61C C68G C82G]
CUCUCGGGAGCCUAGUUGGUUUAAGGUGCAAGACUUUAAUUUAUCACUACGAAAUUUUGAGCUCGGGCGUUCGACUCGCCCCCGGGAGAUUUUUUCCUCGAGCAA [U8G A13U C27U C56U A62C]
CUCUCGGGAGCCUAGUUGGUUUAAGGCGCAAGACUUUAAUUUAUCACUACGAAAUCUUGAGAUCGGGCGGUCGACUCGCCCCCGGAAGAUUUUUUCCUCGAGCAA [U8G A13U U70G G86A]
CUCUCGGGAGCCAGCUUGGUUUAAGGCGCAAGACUUUAAUUUAUCACUACGAAAUCUUGAGAUCGGGCGUGCGACUCGCCCCCGGGAGAUUUUUUCCUCGAGCAA [U8G A14G G15C U71G]
CUCUCGGGAGCCAUGUUGGUUUAAGGCGCAAGACUUUAAUUUAUCACUACGAAAUCUUGAGAUCGGGCGUUCGACUCGCCCCUGGGAGAUUUUUUCCUCGAGCAA [U8G A14U C83U]
CUCUCGGGAGCCAUGUUGGUUUAAGGCGCAAGACUUUAAUUUAUCACUACGAAAUCUUGAAAUAGGGCGUUCGACUCGCCCCCGUGAGAUUUUUUCCUCGAGCAA [U8G A14U G61A C64A G85U]
CUCUCGGGAGCCAAGUUGGUUUCAGUCGCAAGACUUUAAUUUAUCACUACGAAAUCUUGAGAUCGGGCGUUCGACUCGCCCCCGGGAGAUUUUUUCCUCGAGCAA [U8G A23C G26U]
CUCUCGGGAGCCAAGUUGGUUUGAGGCGCAAGACUUUAAUUUAUCACUACGAAAUCUUGAGAUCGGGCGUUCGACUCGCCCGCGGAAGAUUUUUUCCUCGAGCAA [U8G A23G C82G G86A]
CUCUCGGGAGCCAAGUUGGUUUACGGCCCAACACUUUAAUUUAUCACUACGAAAUCUUGAGAUCGGGCGUUCGACUCGCCCCCGGGAGAUUUUUUCCUCGAGCAA [U8G A24C G28C G32C]
CUCUCGGGAGCCAAGUUGGUUUAGGGCGCAAGUCUUUAAUUUAUCACUACGAAAUCUUGAGACCGGGCGAUCGACUCGCCCCCGGGAGAUUUUUUCCUCGAGCAA [U8G A24G A33U U63C U70A]
CUCUCGGGAGCCAAGUUGGUUUAGGGCGCAAGACUUUAAUUUAUCACUACGAAAUCUUGAGAUCGGGCGUUCGACUCGCCACCGGGAGAUUUUUUCCUCGAGCAA [U8G A24G C81A]
CUCUCGGGAGCCAAGUUGGUUUAAGGCGCAAGGCUUUAAUUUAUCACUACGAAAUCUUGAGAUCGGGCGUUCGACUCGCCCCCGGGAGAUUUUUUCCUCGAGCAA [U8G A33G]
CUCUCGGGAGCCAAGUUGGUUUAAGGCGCAAGACUUUAAUUUAUCACUACGAAUUCUUGAGGUCGGGCGUUCGACUCGCCCCCGGGAGAUUUUUUCCUCGAGCAA [U8G A54U A62G]
CUCUCGGGAGCCAAGUUGGUUUAAGGCGCAAGACUUUAAUUUAUCACUACGAAAUCUUGCGAUCGGGCGUUAGACUCGCCCCCGGGAGAUUUUUUCCUCGAGCAA [U8G A60C C72A]
CUCUCGGGAGCCAAGUUGGUUUAAGGCGCAAGACUUUAAUUUAUCACUACGAAAUCUUGAGCUCGGGGGUUCGACUCGCCCCCGGGAGAUUUUUUCCUCGAGCAA [U8G A62C C68G]
CUCUCGGGAGCCAAGUUGGUUUAAGGCGCAAGACUUUAAUUUAUCACUACGAAAUCUUGAGCUCAGGCGUUCGACUCGCCCCCGGGAGAUUUUUUCCUCGAGCAA [U8G A62C G65A]
CUCUCGGGAGUCAAGUUGGUUUAAGGCGCAAGACUUUAAUUUAUCACUACGAAAUCUUGAGAUCGGGCGUUCGGCUCGCCCCCAGGAGAUUUUUUCCUCGAGCAA [U8G C11U A74G G84A]
CUCUCGGGAGCAAAGUUGGUUUAAGGCGCAAGACUUUAAUUUAUCACUACGAAUUCUUGAGAUCGGGCGUUCGACUCGCCCCCGGGAGAUUUUUUCCUCGAGCAA [U8G C12A A54U]
CUCUCGGGAGCGAAGUUGGUUUAAGGCGCAAGACUUUAAUUUAUCACUACGAAAUCUUGAGAUCGGGCGUUCGACUCGCCCCCGGGAGAUUUUUUCCUCGAGCAA [U8G C12G]
CUCUCGGGAGCUACGUUGGUUUAAGGCGCAACACUUUAAUUUAUCACUACGAAAUCCUCAGAUCGGGCGUUCGACUCGCCCCCGGGAGAUUUUUUCCUCGAGCAA [U8G C12U A14C G32C U57C G59C]
CUCUCGGGAGCCAAGUUGGUUUAAGGGUCAAGACUUUAAUUUAUCACUACGAACUCUUGAGAUCGGGCGUUCGACUCGCCACCGGGAGAUUUUUUCCUCGAGCAA [U8G C27G G28U A54C C81A]
CUCUCGGGAGCCAAGUUGGUUUAAGGCGGAAGGCUUUAAUUUAUCACUACGAAAUCUUGAGAUCGGGCGUUCGACUCGCCCCCGGACGAUUUUUUCCUCGAGCAA [U8G C29G A33G G86A A87C]
CUCUCGGGAGCCAAGUUGGUUUAAGGCGGAAGACUUUAAUUUAUCACUACGAAAUCUUGAGAUCGGGCGUUCGCCUCGCCCCCGGGAGAUUUUUUCCUCGAGCAA [U8G C29G A74C]
CUCUCGGGAGCCAAGUUGGUUUAAGGCGGAAGACUUUAAUUUAUCACUACGAAAUCUUGAGAUCGGGCGUUCGACUCGCCCCCAGGAGAUUUUUUCCUCGAGCAA [U8G C29G G84A]
CUCUCGGGAGCCAAGUUGGUUUAAGGCGCAAGAUUUUAAUUUAUCACUACGAAAUCAUGAGAUCGGGCGUUCGACUCGCCCCCGGGAGAUUUUUUCCUCGAGCAA [U8G C34U U57A]
CUCUCGGGAGCCAAGUUGGUUUAAGGCGCAAGACUUUAAUUUAUCACUACGAAAUGUUGAGAUCCGGCGUUCGACUCGACCCCGGGAGAUUUUUUCCUCGAGCAA [U8G C56G G65C C79A]
CUCUCGGGAGCCAAGUUGGUUUAAGGCGCAAGACUUUAAUUUAUCACUACGAAAUUUUGAGAUCGGGCGUUCGACUCGCCCCCGGGAGAUUUUUUCCUCGAGCAA [U8G C56U]
CUCUCGGGAGCCAAGUUGGUUUAAGGCGCAAGACUUUAAUUUAUCACUACGAAAUCUUGAGAUGGGGCGUUCGACUCGCCCCCGGGAGAUUUUUUCCUCGAGCAA [U8G C64G]
CUCUCGGGAGCCAAGUUGGUUUAAGGCGCAAGACUUUAAUUUAUCACUACGAAAUCUUGAGAUCGGGCGUUCGACUCGACCCCGGGAGAUUUUUUCCUCGAGCAA [U8G C79A]
CUCUCGGGAGCCAAGUUGGUUUAAGGCGCAAGACUUUAAUUUAUCACUACGAAAUCUUGAGAUCGGGCGUUCGACUCGGCCCCGGGAGAUUUUUUCCUCGAGCAA [U8G C79G]
CUCUCGGGAGCCAAGUUGGUUUAAGGCGCAAGACUUUAAUUUAUCACUACGAAAUCUUGAGAUCGGGCGUUCGACUCGUCCCCGAGAGAUUUUUUCCUCGAGCAA [U8G C79U G85A]
CUCUCGGGACCCAAGUUGGUUUAAGGCGCAAGACUUUAAUUUAUCACUACGAAAUCUUGAGAUCGGGCGUUCGACUCGCCCCCGGGAGAUUUUUUCCUCGAGCAA [U8G G10C]
CUCUCGGGAGCCAAAUUGGUUUAAGGCGCAAGACUUUAAUUUAUCACUACGAAAUCUUGAGAUCGGGCGUUCGACUCCCCCCCGGGAGAUUUUUUCCUCGAGCAA [U8G G15A G78C]
CUCUCGGGAGCCAACUUGGUUUACGGCGCAAGACUUUAAUUUAUCACUACGAAAUCUUGAGACCGGGCGUCCGACUCGCCCCCGGGAGAUUUUUUCCUCGAGCAA [U8G G15C A24C U63C U71C]
CUCUCGGGAGCCAAGUUUGUUUAAGGCGGAAGGCUUUAAUUUAUCACUACGAAAUCUUGAGAUCGGGCGUUCGACUCACCCCCGGGAGAUUUUUUCCUCGAGCAA [U8G G18U C29G A33G G78A]
CUCUCGGGAGCCAAGUUUGUGUAAGGCGCAAGACUUUAAUUUAUCACUACGAAAUUUUGACAUCGGGCGUUCGACUCGCCCCCGGGAGAUUUUUUCCUCGAGCAA [U8G G18U U21G C56U G61C]
CUCUCGGGAGCCAAGUUUGUUUAAGGCGCAAGACUUUAAUUUAUCACUACGAAAUCUUGAGAACGGGCGUUCGACUCGCCCCCGGGAGAUUUUUUCCUCGAGCAA [U8G G18U U63A]
CUCUCGGGAGCCAAGUUGUUUUAUGUCGCAAGACUUUAAUUUAUCACUACGAAAUCUGGAGAUCGGGCGUUCGACUCGCCCCCGGGACAUUUUUUCCUCGAGCAA [U8G G19U A24U G26U U58G G88C]
CUCUCGGGAGCCAAGUUGGUUUAACGCGCAAGACUUUAAUUUAUCACUACGAAAUCUUGUGAUCGGGCGUUCGACUCGCCCCCGGGAGAUUUUUUCCUCGAGCAA [U8G G25C A60U]
